Source: US6127339A, “Peptide for binding thereto a low density lipoprotein” (Asahi Kasei Kogyo Kabushiki Kaisha, priority 1995, dated 2000)
Not every detail of the peptide structures is certain; ends, links or a residue may be inferred. Residues, ends and D or L forms follow the SMILES beside them. No end group written: not given here.

Tests used:
[1] = tested on: LDL; experiment: BIAcore affinity of immobilized peptide to LDL in plasma; assay type: binding; conditions: plasma containing 1 mg/ml LDL versus LDL-free plasma; based on the immobilized amount of RRWFW-CONH2 as standard
Description: (§1) Further, the binding ability (affinity) of the adsorbent for an LDL can also be determined by using BIAcore (manufactured and sold by Pharmacia Biosensor AB, Sweden), in accordance with the instructions given in a manual attached to BIAcore. Specifically, the binding ability of the adsorbent for an LDL can also be determined by a method in which the peptide is immobilized on a sensor chip of the BIAcore, and a solution containing LDL, such as plasma, is flowed over the sensor chip.
(§2) Twenty-seven different peptides and four different comparative peptides (which are all shown in Table 12, wherein for Example 12, Sample Nos. 12-15 are SEQ ID NOS:12-15, respectively) were prepared in substantially the same manner as in Example 7. Each of the obtained peptides was individually dissolved in a 10 mM acetate buffer (pH: 5.5) to thereby obtain peptide solutions each having a peptide concentration of 3.5×10^-3 mol/ml. Then, 35 μl of each peptide solution was individually injected to BIAcore (manufactured and sold by Pharmacia Biosensor AB, Sweden) equipped with an activated sensor chip CM5 Certified (manufactured and sold by Pharmacia Biosensor AB, Sweden) (hereinafter, frequently referred to simply as "sensor chip") to thereby immobilize the peptide on the sensor chip by amino coupling, in accordance with the instructions given in a manual attached to the BIAcore. The flow rate of the peptide solution for the immobilization of the peptide was 5 μl/min. After the immobilization of the peptide, ethanolamine was injected into the BIAcore to thereby block the unreacted active sites remaining on the sensor chip. Then, the sensor chip was washed with HBS buffer (described in the manual attached to the BIAcore) until the base line for the sensor chip became stable.
The affinity of the peptide to the LDL in plasma was measured using the above-mentioned BIAcore (provided with the sensor chip having the peptide immobilized thereon) as follows. 60 μl of LDL-free plasma was injected into the BIAcore over 6 minutes and, then, plasma containing 1 mg/ml of LDL was injected into the BIAcore over 6 minutes. The flow rate of these two types of plasma was 10 μl/min.
The affinity of the peptide to the LDL was obtained as a difference between the RU (Resonance Unit) value obtained at the time of 10 seconds before the completion of the 6-minute injection of the LDL-free plasma (indicated by "A" in FIG. 1) and the RU value obtained immediately after achieving complete replacement of the LDL-containing plasma by HBS buffer (namely, at the time of 6 minutes and 10 seconds after the start of the 6-minute injection of the LDL-containing plasma (indicated by "B" in FIG. 1). However, since the amounts of the peptides immobilized on the sensor chip vary depending on the types of the peptides, the amount of a peptide of RRWFW-CONH2 immobilized on the sensor chip was taken as a standard amount and the affinities of various tested peptides were determined, based on the above standard amount.

[2] = tested on: LDL; experiment: BIAcore affinity of immobilized peptide to LDL in HBS buffer; assay type: binding; conditions: 6-minute injection, based on the immobilized amount of RRWFW-CONH2 as standard
Description: as §1
as §2, with “Twenty-six different” for “Twenty-seven different”, “Table 11;” for “Table 12,”, “Example 11,” for “Example 12,”, “Nos. 1, 4 and 5-26” for “Nos. 12-15”, “ID NOS:35, 89 and 36-57, respectively, and wherein for Comparative Example 8, Sample Nos. 1, 2, 3 and 4 are SEQ ID NOS:86, 87, 90 and 88,” for “ID NOS:12-15,”
The affinity of the peptide to the LDL contained in HBS buffer was measured using the above-mentioned BIAcore (provided with the sensor chip having the peptide immobilized thereon) as follows. 60 μl of an LDL solution was injected into the BIAcore over 6 minutes. The flow rate of the LDL solution was 10 μ/min. The affinity of the peptide to the LDL was obtained as a difference between the RU (Resonance Unit) value corresponding to the base line and the RU value obtained at the time of 10 seconds before the completion of the 6-minute injection of the LDL solution. However, since the amounts of the peptides immobilized on the sensor chip vary depending on the types of the peptides, the amount of a peptide of RRWFW-CONH2 immobilized on the sensor chip was taken as a standard amount and the affinities of various tested peptides were determined, based on the above standard amount.

[3] = tested on: LDL; experiment: LDL-binding ratio of free peptide (ultrafiltration and HPLC); conditions: 10 μl peptide 1 mmol/liter + 90 μl LDL 5 mg/ml, room temperature 1 hour

| Compound | Affinity to LDL (RU) [1] | Affinity to LDL (RU) [2] | LDL-binding ratio (%) [3] [%] |
| --- | --- | --- | --- |
| N=C(N)NCCC[C@H](N)C(=O)N[C@@H](Cc1ccccc1)C(=O)N[C@@H](Cc1ccccc1)C(=O)N[C@@H](Cc1c[nH]c2ccccc12)C(N)=O [RFFW-CONH2] (H-RFFW-NH2) | 4,000 RU | – | – |
| FFFRR-NH2 [FFFRR-CONH2] | 5,700 RU | – | – |
| FFFRW-NH2 [FFFRW-CONH2] | 1,100 RU | 7,800 RU | – |
| KFFLW-NH2 [KFFLW-CONH2] | 1,300 RU | 4,600 RU | – |
| KMLFF-NH2 [KMLFF-CONH2] | – | 3,000 RU | – |
| KRFFF-NH2 [KRFFF-CONH2] | 1,800 RU | – | – |
| KRVWW-NH2 [KRVWW-CONH2] | 1,300 RU | 2,700 RU | – |
| KRWFW-NH2 [KRWFW-CONH2] | 2,900 RU | 10,500 RU | 64.8 |
| KWLFW-NH2 [KWLFW-CONH2] | 1,500 RU | 4,600 RU | – |
| QDGSDEVYK-NH2 [reference compound] | – | – | 10.5 |
| QGDDSEVYK-NH2 [reference compound] | – | – | 1.5 |
| RFFLW-NH2 [RFFLW-CONH2] | 1,800 RU | 5,000 RU | – |
| RKVWW-NH2 [RKVWW-CONH2] | – | 2,300 RU | – |
| RRFFF-NH2 [RRFFF-CONH2] | 2,300 RU | – | – |
| RRFFW-NH2 [RRFFW-CONH2] | 3,500 RU | 6,200 RU | – |
| RRFWF-NH2 [RRFWF-CONH2] | 7,800 RU | 9,800 RU | – |
| RRFWW-NH2 [RRFWW-CONH2] | 4,400 RU | 7,700 RU | – |

| Compound | Affinity to LDL (RU) [1] | Affinity to LDL (RU) [2] | LDL-binding ratio (%) [3] [%] |
| --- | --- | --- | --- |
| RRWAW-NH2 [RRWAW-CONH2] | 5,100 RU | 3,400 RU | – |
| RRWEW-NH2 [RRWEW-CONH2] | 4,900 RU | 3,500 RU | – |
| RRWFF-NH2 [RRWFF-CONH2] | 2,000 RU | 8,500 RU | – |
| RRWFW-NH2 [RRWFW-CONH2] | 2,200 RU | 16,000 RU | – |
| RRWIW-NH2 [RRWIW-CONH2] | 3,500 RU | 5,500 RU | – |
| RRWLW-NH2 [RRWLW-CONH2] | 8,100 RU | 9,100 RU | – |
| RRWRW-NH2 [RRWRW-CONH2] | 4,500 RU | 3,900 RU | – |
| RRWSW-NH2 [RRWSW-CONH2] | 2,500 RU | 3,200 RU | – |
| RRWVW-NH2 [RRWVW-CONH2] | 1,900 RU | 3,500 RU | – |
| RRWWF-NH2 [RRWWF-CONH2] | 4,800 RU | 13,500 RU | – |
| RRWWW-NH2 [RRWWW-CONH2] | 1,800 RU | 6,600 RU | – |
| RRWYW-NH2 [RRWYW-CONH2] | 2,900 RU | 4,000 RU | – |
| VEEME-NH2 [VEEME-CONH2, reference compound] | 290 RU | 880 RU | – |
| WFWRK-NH2 [WFWRK-CONH2] | – | 4,400 RU | 71.6 |
| WFWRR-NH2 [WFWRR-CONH2] | 3,100 RU | 2,800 RU | – |
| WLFFR-NH2 [WLFFR-CONH2] | 3,900 RU | 8,700 RU | – |
| YVSPD-NH2 [YVSPD-CONH2, reference compound] | 210 RU | 440 RU | – |
